# Among all 310,000 compounds or so, about 2,200 (0.71%) showed an effect of 50% or more. Effects have a minus sign here. The list shows a part of the results.
# Target: human ether-à-go-go-related gene (hERG) potassium channel (human, UniProt Q12809)
# Assay: primary screen, population patch clamp on CHO cells stably expressing hERG
# Chain of human ether-à-go-go-related gene (hERG) potassium channel (Q12809 whole entry, looked up): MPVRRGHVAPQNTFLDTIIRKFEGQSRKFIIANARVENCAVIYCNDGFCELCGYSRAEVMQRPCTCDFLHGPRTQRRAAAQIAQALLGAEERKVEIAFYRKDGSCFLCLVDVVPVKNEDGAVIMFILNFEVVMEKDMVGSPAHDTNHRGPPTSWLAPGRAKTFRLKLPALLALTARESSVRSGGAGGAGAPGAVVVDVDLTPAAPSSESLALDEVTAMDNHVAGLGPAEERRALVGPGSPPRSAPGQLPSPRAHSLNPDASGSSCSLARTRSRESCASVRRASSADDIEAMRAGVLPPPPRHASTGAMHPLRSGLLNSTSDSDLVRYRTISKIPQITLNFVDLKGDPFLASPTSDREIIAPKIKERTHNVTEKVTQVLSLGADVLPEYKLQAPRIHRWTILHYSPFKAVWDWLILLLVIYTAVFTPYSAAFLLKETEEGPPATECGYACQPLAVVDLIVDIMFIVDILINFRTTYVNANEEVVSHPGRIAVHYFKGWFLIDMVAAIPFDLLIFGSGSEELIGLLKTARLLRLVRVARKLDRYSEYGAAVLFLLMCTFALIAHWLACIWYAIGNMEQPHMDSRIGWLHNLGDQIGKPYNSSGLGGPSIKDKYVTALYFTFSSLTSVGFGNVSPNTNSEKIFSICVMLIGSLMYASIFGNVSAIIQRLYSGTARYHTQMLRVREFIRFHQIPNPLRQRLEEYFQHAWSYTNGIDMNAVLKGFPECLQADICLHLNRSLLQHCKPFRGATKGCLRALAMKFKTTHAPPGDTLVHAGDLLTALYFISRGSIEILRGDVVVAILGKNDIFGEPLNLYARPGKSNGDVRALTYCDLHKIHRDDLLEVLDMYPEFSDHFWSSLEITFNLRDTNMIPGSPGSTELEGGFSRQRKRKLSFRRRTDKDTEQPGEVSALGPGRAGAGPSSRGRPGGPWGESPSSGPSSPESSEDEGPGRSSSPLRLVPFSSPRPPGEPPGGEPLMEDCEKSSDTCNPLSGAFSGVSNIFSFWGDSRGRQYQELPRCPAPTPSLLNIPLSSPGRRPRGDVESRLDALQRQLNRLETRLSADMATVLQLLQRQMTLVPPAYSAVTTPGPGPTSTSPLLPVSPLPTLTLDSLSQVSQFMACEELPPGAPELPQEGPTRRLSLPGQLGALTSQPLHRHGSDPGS
row,SMILES,"hERG current change (%, negative = inhibition) at 1uM [%]"
1,C=CCN1C(=O)/C(=C/c2cc(C)n(-c3cccnc3)c2C)C(=O)NC1=S,10.3
2,COCC(=O)N/N=C/c1c(C)[nH]n(-c2ccccc2)c1=O,14.5
3,CCOc1ccccc1-n1c(O)c(C=NCCCN(CC)CC)c(=O)[nH]c1=O,-5.11
4,Cn1c(=O)c2c(nc(SCC(=O)NCC3CCCO3)n2Cc2ccc(F)cc2)n(C)c1=O (centres unmarked),-4.73
5,O=C(NCC(c1cccs1)N1CCOCC1)c1cc(=O)[nH]c2ccccc12 (centres unmarked),10.2
6,Cc1cc(=O)oc2cc(NC(=O)c3cccc(Br)c3)ccc12,11.9
7,O/N=C/c1ccc2cccc(O)c2n1,1.72
8,O=C1C=C(c2cccc(Br)c2)C[C@@H](c2ccc3c(c2)OCO3)C1,-0.0166
9,CCc1nc(Nc2ccc(OC)cc2OC)c2oc3ccccc3c2n1.Cl,15.8
10,O=C(COC(=O)/C=C/c1ccc(Cl)cc1)NC1CCCC1,3.4
11,CC1(C)CC(=O)C=C(c2ccc(F)cc2OCc2ccccc2)C1,11.8
12,COC(=O)CNC(c1ccccc1)c1cc(Br)ccc1NS(=O)(=O)c1ccccc1 (centres unmarked),2.04
13,NS(=O)(=O)c1ccc(CCNC(=O)NC2(C(F)(F)F)Oc3ccccc3O2)cc1,12
14,CCCCCCOC(=O)C(C#N)c1nc2ccccc2nc1N1CCCCC1 (centres unmarked),7.5
15,COC(=O)c1cc(S(=O)(=O)NCC2CCN(Cc3ccc(F)cc3)CC2)cn1C,14.4
16,Cc1nc(NC(=O)c2ccccc2[N+](=O)[O-])sc1C(=O)N(C)C,16.4
17,Cc1noc(C)c1S(=O)(=O)N1CCN(c2ccc(Cl)cc2)CC1,4.66
18,CCCNC(=O)c1ccccc1NC(=O)CN(c1ccccc1OCC)S(C)(=O)=O,16.2
19,Cc1ccnc(NC(=O)Cn2c(=O)oc3ccccc32)c1,3.73
20,COc1ccc(OCC(=O)N2CCN(c3cccc(C(F)(F)F)c3)CC2)cc1,4.38
21,COc1cc2ccccc2cc1C(=O)Nc1sc2c(c1C(N)=O)CCN(C(C)C)C2.Cl,8.92
22,Cc1ccc(NC(=O)CSc2nnc(-c3ccoc3C)n2CCCN(C)C)cc1Cl,-70.2

row,SMILES,"hERG current change (%, negative = inhibition) at 1uM [%]"
1,CSc1nc(-c2ccco2)nn1C(=O)c1cccs1,10.2
2,COC(=O)C1=C(C)C(c2ccc(OC)cc2OC)NC(=O)N1 (centres unmarked),15.3
3,Cc1cc(C)nc(SCC(=O)N/N=C/c2cccnc2)n1,3.77
4,C=CCNC(=S)Nc1c(N)n(C)c(=O)n(C)c1=O,14.1
5,Cc1n[nH]c(=O)c2ccccc12,7.19
6,CCOC(=O)CC1=C(C(=O)OCC)C2(C(=O)N1CC(=O)OC)C(C#N)=C(N)Oc1ccccc12 (centres unmarked),12.7
7,Clc1ccc(OCCn2cnc3ccccc32)c(Cl)c1,10.4
8,O=C(Nc1cccc(S(=O)(=O)NC2=NCCCCC2)c1)c1cc(-c2ccncc2)nc2ccccc12,17.9
9,COc1ccc(S(=O)(=O)N2CCCC2CNC(=O)C(=O)NCc2ccc3c(c2)OCO3)cc1 (centres unmarked),11.1
10,COc1cc2ncnc(NCc3ccco3)c2cc1OC,4.37
11,Cc1cccc(NC(=S)N2CCN(S(C)(=O)=O)CC2)c1,24.6
12,COc1ccc(C=O)cc1CSc1ncccc1C(=O)O,8.6
13,O=C1C(Cl)=C(Nc2cccc(O)c2)C(=O)N1Cc1ccccc1,-4.58
14,Fc1ccc2[nH]c3c(N4CCSCC4)ncnc3c2c1,7.72
15,COc1ccc(CNC(=O)c2cc(C)nn2-c2ccccc2)cc1,3.56
16,O=C(COc1ccccc1)NCC(c1cccs1)N1CCOCC1 (centres unmarked),-3.89
17,Cc1ccc2nsnc2c1S(=O)(=O)NC1CC1,1.14
18,Nc1cnc(-c2ccccc2)nc1Cl,11.6
19,Cc1ccccc1CSc1nn2c(=O)c(C)nnc2s1,10.5
20,O=C(COc1ccc(Cl)cc1)N1CCN(S(=O)(=O)c2ccc(Cl)cc2)CC1,-9.15
21,Cc1ccc(NC(=O)CN(C)C(=O)CSc2ccc3c(c2)OCCO3)cc1,0.853
22,Cc1cccc(Nc2nc(NCc3ccco3)c3ccccc3n2)c1.Cl,15

# Source: article PMC4336329 (PLoS ONE, 2015)
